Measurements as given in the supplement of paper PMC4967469.

Legend:
Assay in all cases: Viability of human cancer cell lines after 72 h of drug (GDSC screen)
Thapsigargin = compound: C/C=C(/C)C(=O)O[C@H]1C(C)=C2[C@H]([C@@H]1OC(=O)CCCCCCC)[C@@](C)(OC(C)=O)C[C@H](OC(=O)CCC)[C@@]1(O)[C@H]2OC(=O)[C@@]1(C)O [Thapsigargin]; details: top dose 0.512 µM; top dose inferred
Experimental: (§1)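 Human cancer cell lines in 384-well plates, medium with 10% serum, drug for 72 h over a 256-fold dose range (nine 2-fold or five 4-fold steps up to the top dose). Adherent lines were fixed and stained with the nucleic acid dye Syto60, suspension lines read with resazurin; signal relative to control wells, capped at 0 and 100%. One two-parameter sigmoid per drug and line, fitted in a mixed model over all curves with the slope shared within a line.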

QL-X-138 = compound: C=CC(=O)Nc1cc(-n2c(=O)ccc3cnc4ccc(-c5cn[nH]c5)cc4c32)ccc1C [QL-X-138]; details: top dose 10.24 µM; top dose inferred
Experimental: as §1

GSK269962A = compound: CCn1c(-c2nonc2N)nc2cnc(Oc3cccc(NC(=O)c4ccc(OCCN5CCOCC5)cc4)c3)cc21 [GSK269962A]; details: top dose inferred
Experimental: as §1

MPS-1-IN-1 = compound: COc1cc(N2CCC(O)CC2)ccc1Nc1cc(Nc2ccccc2S(=O)(=O)C(C)C)c2cc[nH]c2n1 [MPS-1-IN-1]; details: top dose 20 µM; top dose inferred
Experimental: as §1

(5Z)-7-Oxozeaenol = compound: COc1cc(O)c2c(c1)/C=C/C[C@H](O)[C@H](O)C(=O)/C=C\C[C@H](C)OC2=O [(5Z)-7-Oxozeaenol]; details: top dose 10 µM; top dose inferred
Experimental: as §1

CP466722 = compound: COc1cc2ncnc(-n3nc(-c4ccccn4)nc3N)c2cc1OC [CP466722]; details: top dose 16 µM; top dose inferred
Experimental: as §1

Zibotentan = compound: COc1nc(C)cnc1NS(=O)(=O)c1cccnc1-c1ccc(-c2nnco2)cc1 [Zibotentan]; details: top dose 20 µM; top dose inferred
Experimental: as §1

ABT-888 = compound: C[C@]1(c2nc3c(C(N)=O)cccc3[nH]2)CCCN1 [ABT-888]; details: top dose 5 µM; top dose inferred
Experimental: as §1

ABT-869 = compound: Cc1ccc(F)c(NC(=O)Nc2ccc(-c3cccc4[nH]nc(N)c34)cc2)c1 [ABT-869]; details: top dose 1.024 µM; top dose inferred
Experimental: as §1

CHIR-99021 = compound: Cc1cnc(-c2cnc(NCCNc3ccc(C#N)cn3)nc2-c2ccc(Cl)cc2Cl)[nH]1 [CHIR-99021]
Experimental: as §1

Cytarabine = compound: Nc1ccn([C@@H]2O[C@H](CO)[C@@H](O)[C@@H]2O)c(=O)n1 [Cytarabine]; details: top dose 2 µM
Experimental: as §1

KU-55933 = compound: O=c1cc(-c2cccc3c2Sc2ccccc2S3)oc(N2CCOCC2)c1 [KU-55933]; details: top dose 10 µM
Experimental: as §1

[1] = top dose 5 µM, screen: GDSC drug entry 1192
[2] = top dose 2.56 µM, screen: GDSC drug entry 154
[3] = top dose 10 µM, screen: GDSC drug entry 1241, top dose inferred
[4] = top dose 2.5 µM, screen: GDSC drug entry 127

| Cell Line | AUC (Thapsigargin) | IC50 (Thapsigargin) [nM] | AUC (QL-X-138) | IC50 (QL-X-138) [nM] | AUC (GSK269962A; [1]) | IC50 (GSK269962A; [1]) [µM] | AUC (MPS-1-IN-1) | IC50 (MPS-1-IN-1) [µM] | AUC ((5Z)-7-Oxozeaenol) | IC50 ((5Z)-7-Oxozeaenol) [nM] | AUC (CP466722) | IC50 (CP466722) [µM] | AUC (Zibotentan) | IC50 (Zibotentan) [µM] | AUC (ABT-888) | IC50 (ABT-888) [µM] | AUC (ABT-869) | IC50 (ABT-869) [nM] | AUC (CHIR-99021; [2]) | IC50 (CHIR-99021; [2]) [nM] | AUC (CHIR-99021; [3]) | IC50 (CHIR-99021; [3]) [nM] | AUC (Cytarabine) | IC50 (Cytarabine) [nM] | AUC (KU-55933) | IC50 (KU-55933) [µM] | AUC (GSK269962A; [4]) | IC50 (GSK269962A; [4]) [µM] |
| --- | --- | --- | --- | --- | --- | --- | --- | --- | --- | --- | --- | --- | --- | --- | --- | --- | --- | --- | --- | --- | --- | --- | --- | --- | --- | --- | --- | --- |
| MC-IXC (neuroblastoma, adherent) | 0.314 | 11.3 | 0.638 | 1380 | 0.996 | > 5 | 0.847 | 9.21 | 0.805 | 3530 | 0.694 | 2.97 | 0.992 | > 20 | 0.996 | > 5 | 0.995 | > 1020 | 0.91 | 1860 | 0.987 | > 10000 | 0.338 | 50.6 | 0.977 | > 10 |  |  |
| MDA-MB-330 (breast, adherent) | 0.217 | 4.14 | 0.917 | > 10200 | 0.965 | > 5 | 0.977 | > 20 | 0.846 | 8910 | 0.822 | 11.1 | 0.985 | > 20 | 0.986 | > 5 | 0.985 | > 1020 | 0.955 | > 2560 | 0.981 | > 10000 | 0.958 | > 2000 | 0.966 | > 10 |  |  |
| MDA-MB-361 (breast, adherent) | 0.171 | 3.26 | 0.762 | 3640 | 0.952 | > 5 | 0.979 | > 20 | 0.796 | 4650 | 0.917 | > 16 | 0.987 | > 20 | 0.981 | > 5 | 0.989 | > 1020 | 0.987 | > 2560 | 0.984 | > 10000 | 0.897 | > 2000 | 0.975 | > 10 |  |  |
| MDA-MB-415 (breast, adherent) | 0.689 | 130 | 0.949 | > 10200 | 0.965 | > 5 | 0.982 | > 20 | 0.797 | 6660 | 0.973 | > 16 | 0.983 | > 20 | 0.983 | > 5 | 0.983 | > 1020 | 0.982 | > 2560 | 0.96 | > 10000 | 0.829 | 1880 | 0.921 | > 10 |  |  |
| MDA-MB-453 (breast, adherent) | 0.867 | > 512 | 0.444 | 443 | 0.928 | > 5 | 0.949 | > 20 | 0.82 | 6590 | 0.829 | 11.5 | 0.986 | > 20 | 0.986 | > 5 | 0.974 | > 1020 | 0.984 | > 2560 | 0.98 | > 10000 | 0.919 | > 2000 | 0.979 | > 10 |  |  |
| MEL-JUSO (melanoma, adherent) | 0.173 | 2.81 | 0.962 | > 10200 | 0.881 | > 5 | 0.75 | 7.23 | 0.503 | 637 | 0.827 | 11.4 | 0.983 | > 20 | 0.957 | > 5 | 0.959 | > 1020 | 0.967 | > 2560 | 0.966 | > 10000 | 0.434 | 80.6 | 0.979 | > 10 |  |  |
| MES-SA (uterus, adherent) | 0.118 | 2.54 | 0.909 | > 10200 | 0.516 | 0.343 | 0.992 | > 20 | 0.43 | 414 | 0.934 | > 16 | 0.992 | > 20 | 0.992 | > 5 | 0.992 | > 1020 | 0.992 | > 2560 | 0.989 | > 10000 | 0.794 | 773 | 0.982 | > 10 |  |  |
| MFE-280 (endometrium, adherent) | 0.552 | 46.3 | 0.653 | 1920 | 0.707 | 1.42 | 0.932 | > 20 | 0.674 | 2190 | 0.844 | > 16 | 0.979 | > 20 | 0.982 | > 5 | 0.967 | > 1020 | 0.972 | > 2560 | 0.98 | > 10000 | 0.967 | > 2000 | 0.979 | > 10 |  |  |
| MFE-296 (endometrium, adherent) | 0.249 | 5.71 | 0.674 | 2040 | 0.847 | 4.1 | 0.979 | > 20 | 0.71 | 2570 | 0.863 | 15.6 | 0.983 | > 20 | 0.965 | > 5 | 0.985 | > 1020 | 0.968 | > 2560 | 0.983 | > 10000 | 0.771 | 823 | 0.958 | > 10 |  |  |
| MS751 (cervix, adherent) | 0.401 | 17.5 | 0.901 | > 10200 | 0.878 | 4.38 | 0.957 | > 20 | 0.714 | 2370 | 0.953 | > 16 | 0.99 | > 20 | 0.99 | > 5 | 0.987 | > 1020 | 0.972 | > 2560 | 0.961 | > 10000 | 0.944 | > 2000 | 0.99 | > 10 |  |  |
| NB12 (neuroblastoma, adherent) | 0.386 | 14 | 0.814 | 8200 | 0.791 | 3.15 | 0.834 | 19.8 | 0.408 | 321 | 0.736 | 6.09 | 0.978 | > 20 | 0.976 | > 5 | 0.972 | > 1020 | 0.956 | > 2560 | 0.975 | > 10000 | 0.892 | > 2000 | 0.972 | > 10 | 0.875 | > 2.5 |
| NCI-H28 (mesothelioma, adherent) | 0.776 | 273 | 0.931 | > 10200 | 0.9 | > 5 | 0.917 | > 20 | 0.697 | 2690 | 0.933 | > 16 | 0.979 | > 20 | 0.962 | > 5 | 0.975 | > 1020 | 0.878 | > 2560 | 0.844 | > 10000 | 0.833 | 1910 | 0.938 | > 10 |  |  |
| NCI-H520 (lung squamous cell carcinoma, adherent) | 0.145 | 2.37 | 0.684 | 2140 | 0.974 | > 5 | 0.899 | > 20 | 0.836 | 6910 | 0.784 | 7.06 | 0.985 | > 20 | 0.987 | > 5 | 0.987 | > 1020 | 0.987 | > 2560 | 0.983 | > 10000 | 0.959 | > 2000 | 0.965 | > 10 |  |  |
| NCI-H596 (lung adenocarcinoma, adherent) | 0.496 | 31 | 0.652 | 1920 | 0.917 | > 5 | 0.972 | > 20 | 0.598 | 1260 | 0.828 | 14 | 0.976 | > 20 | 0.982 | > 5 | 0.953 | > 1020 | 0.982 | > 2560 | 0.972 | > 10000 | 0.966 | > 2000 | 0.974 | > 10 |  |  |
| NCI-H650 (lung adenocarcinoma, adherent) | 0.355 | 12.2 | 0.618 | 1400 | 0.92 | > 5 | 0.844 | 16.5 | 0.68 | 2100 | 0.807 | 9.22 | 0.984 | > 20 | 0.984 | > 5 | 0.986 | > 1020 | 0.986 | > 2560 | 0.919 | > 10000 | 0.896 | > 2000 | 0.964 | > 10 |  |  |
| NCI-H661 (large cell lung carcinoma, adherent) | 0.442 | 21.5 | 0.718 | 3060 | 0.744 | 1.84 | 0.872 | > 20 | 0.726 | 3190 | 0.975 | > 16 | 0.972 | > 20 | 0.98 | > 5 | 0.978 | > 1020 | 0.957 | > 2560 | 0.969 | > 10000 | 0.739 | 710 | 0.895 | > 10 |  |  |
| NCI-H810 (large cell lung carcinoma, adherent) | 0.21 | 4.7 | 0.46 | 501 | 0.496 | 0.305 | 0.77 | 7.3 | 0.751 | 3160 | 0.775 | 6.03 | 0.988 | > 20 | 0.987 | > 5 | 0.988 | > 1020 | 0.986 | > 2560 | 0.968 | > 10000 | 0.917 | > 2000 | 0.984 | > 10 |  |  |
| NCI-H841 (small cell lung carcinoma, adherent) | 0.874 | 502 | 0.576 | 1040 | 0.928 | > 5 | 0.92 | > 20 | 0.792 | 4540 | 0.852 | 12.4 | 0.988 | > 20 | 0.985 | > 5 | 0.988 | > 1020 | 0.961 | > 2560 | 0.971 | > 10000 | 0.737 | 594 | 0.984 | > 10 |  |  |

A lower IC50 marks a more sensitive line; where the fit passes the top or lowest dose, that dose stands as a limit. For AUC the same curve is integrated over the 256-fold range of doses and scaled to a fraction; values near 1 show little effect. For some assays here: The top dose, if marked as inferred, was calculated from the reported fits. For some assays here: An entry number marks a drug with two screens in the source, which often give different values.
